Test results reported in publication PMC4336329 (PLoS ONE, 2015).
Out of some 310,000 compounds screened, about 14,000 (4.5%) showed an effect of 50% or more. The effect is printed as a negative number. The list shows a part of the results.

target: human ether-à-go-go-related gene (hERG) potassium channel (human, UniProt Q12809); test: primary screen, population patch clamp on CHO cells stably expressing hERG
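Further: peak tail current of the secondary pulse compared with the same well before compound.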

Sequence of human ether-à-go-go-related gene (hERG) potassium channel (Q12809 whole entry, looked up): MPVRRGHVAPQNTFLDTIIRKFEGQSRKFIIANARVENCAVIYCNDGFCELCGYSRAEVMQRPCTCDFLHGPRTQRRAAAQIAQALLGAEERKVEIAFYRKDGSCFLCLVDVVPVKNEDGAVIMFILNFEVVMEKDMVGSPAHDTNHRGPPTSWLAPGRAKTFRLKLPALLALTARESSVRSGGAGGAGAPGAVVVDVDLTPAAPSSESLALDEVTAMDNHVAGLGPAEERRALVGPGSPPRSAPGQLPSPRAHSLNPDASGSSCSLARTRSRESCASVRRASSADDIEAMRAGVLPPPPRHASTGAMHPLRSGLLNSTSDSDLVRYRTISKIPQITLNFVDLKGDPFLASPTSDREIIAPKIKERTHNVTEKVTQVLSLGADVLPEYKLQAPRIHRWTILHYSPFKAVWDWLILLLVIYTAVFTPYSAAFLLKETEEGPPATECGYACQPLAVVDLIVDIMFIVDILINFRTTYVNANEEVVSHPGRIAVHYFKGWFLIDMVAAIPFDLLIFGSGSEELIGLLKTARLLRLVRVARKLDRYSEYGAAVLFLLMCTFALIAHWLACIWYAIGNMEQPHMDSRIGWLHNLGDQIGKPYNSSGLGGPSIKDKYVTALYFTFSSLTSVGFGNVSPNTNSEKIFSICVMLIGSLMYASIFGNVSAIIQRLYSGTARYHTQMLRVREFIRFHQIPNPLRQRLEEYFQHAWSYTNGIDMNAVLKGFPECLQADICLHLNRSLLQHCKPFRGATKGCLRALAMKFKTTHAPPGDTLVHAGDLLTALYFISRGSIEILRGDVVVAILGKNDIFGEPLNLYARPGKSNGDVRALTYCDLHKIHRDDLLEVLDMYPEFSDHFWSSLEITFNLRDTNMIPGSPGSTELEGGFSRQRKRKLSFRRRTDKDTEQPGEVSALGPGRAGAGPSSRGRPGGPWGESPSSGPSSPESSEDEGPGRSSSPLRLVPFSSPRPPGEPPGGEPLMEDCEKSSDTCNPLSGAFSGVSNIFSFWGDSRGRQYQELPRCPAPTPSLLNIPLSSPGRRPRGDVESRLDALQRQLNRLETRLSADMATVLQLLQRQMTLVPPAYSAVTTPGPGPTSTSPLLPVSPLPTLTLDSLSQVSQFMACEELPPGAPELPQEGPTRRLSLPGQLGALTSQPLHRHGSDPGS

Row | Structure (SMILES) | hERG current change (%, negative = inhibition) at 10uM [%]
1 | Cc1cc(/C=C2\C(=N)N3N=C(C(C)C)SC3=NC2=O)c(C)n1Cc1ccccc1 | -0.943
2 | Cc1ccc(CC(=O)NC2CCN(Cc3ccccc3)CC2)cc1 | -12.7
3 | Cc1ccc(S(=O)(=O)NCCSc2nnnn2-c2ccc(C(N)=O)cc2)cc1 | 3.61
4 | COc1cc(C(=O)N2CC(C)OC(C)C2)c([N+](=O)[O-])cc1OC (stereo not shown) | 4.79
5 | CCOC(=O)N1CCN(c2ccc([N+](=O)[O-])cc2)CC1 | -59.4
6 | CNCCCN1c2ccccc2CCc2ccccc21.Cl | -2.73
7 | Cc1cc2cccc(C)c2nc1SCC(=O)NC1CCCCC1 | 3.5
8 | O=C(O)c1cc([N+](=O)[O-])c(NCc2cccnc2)c([N+](=O)[O-])c1 | 9.52
9 | FC(F)(F)c1cccc(NC(=S)N2CCN(c3ccccc3)CC2)c1 | 10.1
10 | Cc1ccc(S(=O)(=O)N2CCC(C(N)=O)CC2)cc1[N+](=O)[O-] | 0.751
11 | O=C(NC1CC(=O)N(c2ccccc2)C1)N1CCN(C(=O)c2ccco2)CC1 (stereo not shown) | -5.77
12 | CCCCCNCC(=O)Nc1cc(C(F)(F)F)ccc1OCCOC | -34.2
13 | CC(=O)c1cc2c(cc1NC(=O)CSc1nnc(C)s1)OCO2 | 5.69
14 | CCOC(=O)CNC(=O)CSc1nc(-c2cccc(C)c2)ns1 | 4.44
15 | O=C(NCc1ccccc1)Oc1cccc(Cl)c1 | 11.3
16 | CCOC(=O)NN1C(=O)c2ccccc2NC1c1ccccc1 (stereo not shown) | -6.67
17 | COc1ccccc1COn1c(=O)c(-c2ccco2)[n+]([O-])c2ccccc21 | 5.96
18 | O=C(Cn1nnc(-c2ccccc2F)n1)Nc1ccc2c(c1)OCO2 | 16.6
19 | Cc1ccc(S(=O)(=O)Nc2csc(C)c2C(=O)O)cc1 | 21.7
20 | O=C(NCCCNC(=O)c1ccc(Cl)cc1Cl)c1cnccn1 | -0.517
21 | Cc1nn(-c2ccccc2)c2sc(C(=O)N(CC(=O)NC(C)(C)C)Cc3ccco3)cc12 | -21.3
22 | S=C(NCCCc1ccccc1)NC1CCCCC1 | -4.79

Row | Structure (SMILES) | hERG current change (%, negative = inhibition) at 10uM [%]
23 | Fc1cccc(F)c1-n1c(CN2CCCC2)csc1=S | -2.37
24 | CC(=O)c1ccc(N2CCN(S(=O)(=O)c3cccc4nonc34)CC2)cc1 | 0.735
25 | COC(=O)C1=C(c2ccc(C(C)=O)cc2)C[C@@H]2CC[C@H]1N2C(=O)N1CCC(O)CC1 | 9.89
26 | O=P(OC1CCS(=O)(=O)C1)(c1ccccc1)c1ccccc1 (stereo not shown) | 11.2
27 | CC(CCn1cccn1)NC(=O)c1cc(COc2ccc(F)cc2F)on1 (stereo not shown) | -19.5
28 | O=C(O)C1CC1(c1ccccc1)c1ccccc1 (stereo not shown) | 17.7
29 | Cc1ccc(C(=O)NCC(=O)NCC(=O)OCC(=O)c2ccc(F)cc2)cc1 | -4.81
30 | CCc1n[nH]c(=S)n1N=C1CCC(C)CC1 (stereo not shown) | 19.1
31 | CC(Sc1nc2ccccc2c(=O)n1C)C(=O)N(C)C1CCCCC1 (stereo not shown) | -37.4
32 | CC1CCN(CCC(=O)Nc2ccccc2)CC1 | -10.1
33 | O=c1c2c3c(sc2nc2n1CCCC2)CCCC3 | -7.19
34 | Cc1ccc(S(=O)(=O)N2CCOCC2)cc1C(=O)NCc1cccnc1 | 17.5
35 | O=c1cc(NCc2ccccc2)c2ccccc2o1 | -5.54
36 | COc1cc(/C=C/c2nnc3c4ccccc4ncn23)cc(OC)c1OC | -16.2
37 | O=C1CCCN1CCCNc1nc2c(S(=O)(=O)c3ccc(Br)cc3)nnn2c2ccccc12 | 9.4
38 | Cc1ccc(C(=O)NCC2CCCO2)cc1[N+](=O)[O-] (stereo not shown) | 4.29
39 | CCN(CC)CCCN(Cc1cc2cc(OC)c(OC)cc2[nH]c1=O)C(=O)Nc1ccccc1 | -13.8
40 | CC(C)N=c1cc2n(-c3ccc(Cl)cc3)c3ccccc3nc-2cc1Nc1ccc(Cl)cc1 | 35.9
41 | Cc1ccc(-c2c(C)n([O-])c3c([n+]2=O)CCCC3)cc1 | 51.9
42 | COc1ccc(C(C)NCCC(c2ccc(OC(C)C)cc2)c2ccccc2OC)cc1 (stereo not shown) | -64.2
43 | CCN(C(=O)CO/N=C/c1ccc(OC)cc1OC)c1c(N)n(Cc2ccccc2)c(=O)[nH]c1=O | -0.661
44 | CCCCn1cc2c(c1-c1cccc(C)c1)c(=O)n(C)c(=O)n2C | -1.91

Row | Structure (SMILES) | hERG current change (%, negative = inhibition) at 10uM [%]
45 | CC(=O)NC1=NC(=O)/C(=C/c2cn(C(C)=O)nc2-c2ccccc2)S1 | -12.1
46 | COc1ccccc1NC(=O)c1ccc2c(O)c(S(=O)(=O)c3ccccc3)c(=O)[nH]c2c1 | 9.68
47 | Cc1cccc([C@@H]2[C@@H]3C(=O)N(Cc4ccccc4)C(=O)[C@@H]3[C@]3(C)C(=O)N(c4ccc(C(F)(F)F)cc4)C(=O)N23)c1 | 8.43
48 | O=C(NC(=S)Nc1ncc(Br)cc1Br)c1ccccc1 | 2.33
49 | O=C(c1cccn2c(=O)c3ccccc3nc12)N1CCC2(CC1)OCCO2 | 5.98
50 | CCCCNC(=O)c1cc(-c2ccc(OC)cc2)on1 | -11.3
51 | CCN1CCN(Cc2c(O)c(Cl)cc3c(C)cc(=O)oc23)CC1 | -6.86
52 | O=C(COc1ccc(S(=O)(=O)NC2CCCCC2)cc1)NC1CC1 | 3.4
53 | CCO[C@H]1OC(C(N)=O)=C[C@@H](C(C)(C)C)[C@@H]1CCCO | 20.4
54 | CCc1ncc(CN2CCCC(C(=O)Nc3ccc(-c4cscn4)cc3)C2)cn1 (stereo not shown) | -4.98
55 | Cc1ccc2nc3c(c(Nc4ccc5c(c4)OCCO5)c2c1)CCC3.Cl | -51.7
56 | COC(=O)N/N=C/c1cn(CCOc2ccc(OC)cc2)c2ccccc12 | 16.8
57 | COc1ccccc1N(Cc1ccccc1)S(=O)(=O)c1cccc(C(=O)Nc2cc(C)ccn2)c1 | 22.6
58 | CCOC(=O)C1CCN(c2cc3c(cc2NC(=O)c2ccc(OC)c(OC)c2)n(C)c(=O)n3C)CC1 | 21.5
59 | Cc1ccc(CNC(=S)NC2CCCCC2)cc1 | -0.336
60 | CC1CC(C)CN(S(=O)(=O)c2ccc(NC(=S)NC(=O)c3ccccc3)cc2)C1 (stereo not shown) | 8.01
61 | CCOc1ccc(NC(=O)c2c(NC(=O)CN3CCCC3)sc3c2CCC3)cc1 | -3.84
62 | O=C(NC(=S)Nc1ccccc1)C1CCCCC1 | 9.2
63 | Cc1cccnc1NC(=O)c1ccccc1NC(=O)C(C)(C)C | 4.23
64 | Cc1nnc(SCC(=O)Nc2c(Cl)cccc2Cl)n(N)c1=O | 13.3
65 | CCOc1ccccc1N1CCN(C(=O)NC2CCCCC2)CC1 | -3.85
66 | COC(=O)c1cscc1NC(C)=O | 20.7

Row | Structure (SMILES) | hERG current change (%, negative = inhibition) at 10uM [%]
67 | Cc1c(C(=O)Nc2ccccn2)sc2nc3n(c(=O)c12)CCC3 | 7.27
68 | CCn1c(C)nc2cc(C(=O)NNC(=S)Nc3ccc(Cl)cc3)ccc21 | 10.4
69 | COc1ccc(OC)c(N(CC(=O)N2CCc3ccccc3C2)S(C)(=O)=O)c1 | -10.4
70 | CC(C)(CNC(=O)c1cc([N+](=O)[O-])ccc1N1CCC(Cc2ccccc2)CC1)N1CCOCC1 | -48.4
71 | Cc1ccc(NC(=O)C2CCCN(S(=O)(=O)c3c(C)noc3C)C2)cc1F (stereo not shown) | 5.62
72 | CC1CCc2c(nc3ncnn3c2N2CC(C)OC(C)C2)C1 (stereo not shown) | 7.65
73 | COc1ccc(CNC(=O)CS(=O)(=O)Cc2nc(-c3cccc(OC)c3)oc2C)cc1 | -32.4
74 | O=C1NCC(COc2ccc(Cl)cc2)O1 (stereo not shown) | 48.4
75 | O=C(c1ccoc1)N1CCC2(CC1)Oc1ccc(F)cc1C(=O)C21CC(c2cccnc2)=NO1 (stereo not shown) | -48.4
76 | CCOCC(O)CNC(=O)c1ccc(OC2CCN(C(=O)c3cccnc3)CC2)cc1 (stereo not shown) | 23.9
77 | CCOC(=O)N1CCN(S(=O)(=O)N2CCCC(C(=O)NCCCN3CCCCC3CC)C2)CC1 (stereo not shown) | 8.29
78 | COC(=O)c1ccc(NC(=O)CSc2nnc(-c3ccccc3)n2C)cc1 | 14
79 | COc1cccc(NC(=O)c2ncc(Cl)c(Cl)c2Cl)c1 | 8.12
80 | O=C(COC(=O)c1ccc(NS(=O)(=O)c2ccc3c(c2)OCCO3)cc1)NC1CC1 | -1.56
81 | Clc1cc(Br)ccc1OCCOCCN1CCOCC1 | -36.7
82 | CCCCn1c(N)c(N(CC(C)C)C(=O)c2cnc(C)cn2)c(=O)[nH]c1=O | 0.974
83 | Cn1cc(CNCc2ccc(-n3cccn3)cc2)c(-c2ccccc2F)n1 | -62.2
84 | O=C(NCc1ccc2c(c1)OCO2)c1cc2n(n1)C(C(F)(F)F)CC(c1ccc3c(c1)OCO3)N2 (stereo not shown) | 3.58
85 | O=C(O)C1C2CCC(C2)C1C(=O)NCCC1=CCCCC1 (stereo not shown) | 14.9
86 | CCc1nc(SCc2nc3ccccc3[nH]2)c2oc3ccccc3c2n1 | 6.59
87 | CCOC(=O)C1=NN(C(=O)Cc2ccccc2)C(O)(c2ccc(Cl)cc2)C1 (stereo not shown) | -47.6
88 | O=C(Cc1ccc(Br)cc1)NCCc1ccc(Cl)cc1Cl | -0.437
